Test results as given in PubChem BioAssay AID1963320 (National Center for Advancing Translational Sciences (NCATS), 2024).
The campaign covered roughly 1,300 compounds. About 560 (43%) were called active. The set was probably picked from earlier hits. The inconclusive results got no clear call from the source; some entries with a clear call stand among them for comparison. Calls come from the whole dose curve; as a rule, active = well fitted inhibition curve with a large enough effect; inconclusive = small, poorly fitted or top-dose-only effect; inactive = flat fitted curve, though single readings scatter. Potencies beside an inconclusive call are fits to weak or partial responses and may not hold up.

Target: Luciferin 4-monooxygenase (Photinus pyralis) (UniProt P08659)
Test: Firefly luciferase (FLuc-C-HiBiT) enzymatic inhibition screen - Functional assay
Details: purified FLuc-C-HiBiT enzyme, luciferin luminescence; series mostly up to 32.7 µM; activity change, negative = inhibition: at the top concentration
Summary of the method: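 Luminescence is read by CCD imager 5-10 min after adding 10 uM D-luciferin (KM) to 10 nM FLuc-C-HiBiT enzyme with 10 uM ATP. Compounds are preincubated with the enzyme for over 30 min at room temperature, protected from light.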
% is set by controls: 0 for no effect and ±100 for the full control effect; potency is the fitted concentration of half-maximal effect; tags give direction and shape of the fitted curve.
Note: nearly all actives have a fitted effect of over 70% in size.

Chain of UniProt P08659 (P08659 whole entry, looked up): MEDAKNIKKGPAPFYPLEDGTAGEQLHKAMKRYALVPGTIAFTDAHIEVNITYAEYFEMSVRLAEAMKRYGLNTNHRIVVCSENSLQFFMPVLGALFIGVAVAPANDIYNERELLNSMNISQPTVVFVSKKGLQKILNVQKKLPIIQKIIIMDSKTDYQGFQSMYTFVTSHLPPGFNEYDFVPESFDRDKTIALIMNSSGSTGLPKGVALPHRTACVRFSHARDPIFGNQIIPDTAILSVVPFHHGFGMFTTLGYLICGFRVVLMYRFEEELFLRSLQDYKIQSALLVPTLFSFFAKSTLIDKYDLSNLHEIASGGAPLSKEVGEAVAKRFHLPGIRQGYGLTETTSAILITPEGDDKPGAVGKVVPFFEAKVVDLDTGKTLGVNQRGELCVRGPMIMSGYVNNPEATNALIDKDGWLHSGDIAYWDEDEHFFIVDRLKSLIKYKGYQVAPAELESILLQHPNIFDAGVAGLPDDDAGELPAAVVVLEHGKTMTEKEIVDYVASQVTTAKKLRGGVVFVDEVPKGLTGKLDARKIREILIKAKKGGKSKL

Activity change, negative = inhibition, inactive:
COc1ccc(C2=NOC3(CCN([S+](=O)([O-])c4cccs4)C3)C2)cc1 (centres undefined) -10.2%
COc1ccc(CNC(=O)Cn2cccc2C(=O)c2ccccc2C)cc1 -10.9%
COc1cccc(C(=O)Nc2ccc(O)c(-c3nc4ccccc4s3)c2)c1 -7.75%
Cc1ccc(Cn2cc(-c3ccncc3)cc2C(=O)O)cc1 -7.65%
COc1ccc(CN2CCOC[C@H](OCC(=O)N(C)C)C2)cc1 -1.28% [at 49.3 µM]
O=C(/C=C/c1ccccc1)Nc1cc(-c2nc3cc(Cl)ccc3o2)ccc1Cl -5.86%
COc1cccc(C(=O)Nc2ccc(-c3nc4ccccc4s3)c(O)c2)c1 0.738%
CCCn1c(C)cnc1CC1CCN(C(=O)C2(c3ccc(OC)cc3)CC2)C1 (centres undefined) -13.8%
OCc1cn(CC2CCN(c3ncnc4nc[nH]c34)CC2)nn1 -2.32%
COc1ccc(CC(=O)Nc2ccc(-c3nc4ccccc4s3)c(C)c2)cc1OC -13%
COc1ccc(C(=O)Nc2cccc(-c3nc4ccccc4s3)c2)cc1 -15.1%
Cc1cc(C)cc(OCC(=O)Nc2ccc(-c3nc4ccccc4s3)cc2)c1 -1.15%
CCCCOc1ccc(C(=O)Nc2ccc(-c3nc4ccccc4s3)cc2C)cc1 -0.372%
O=C(COc1ccccc1F)Nc1ccc(-c2nc3ccccc3s2)cc1 -4.77%

Potency, inconclusive:
Cc1cc2c(c(-c3nc4ccccc4s3)c1)OC(CNC(=O)CCc1cccnc1)C2 (centres undefined) 17.6 µM [inhibitor, partial curve, poor fit]
COc1cc(C(=O)NC2CCCN(c3cc(-c4ccc(F)cc4)[nH]n3)C2)cc(OC)c1OC (centres undefined) 11.1 µM [inhibitor, partial curve]
Cc1nn(-c2ccc(C(C)C)cc2)c(C)c1[C@@H]1C=C[C@@H](NC(=O)NC(C)C)C1 18 µM [inhibitor, partial curve]
Cc1c(-c2ccc(F)cc2)[nH]c2ccc(CNC(=O)CN3CCOC3=O)cc12 11.1 µM [inhibitor, partial curve]
COc1ccc(-c2cc(N3CCCC(NC(=O)c4cccs4)C3)n[nH]2)cc1 (centres undefined) 9.89 µM [inhibitor, partial curve]
O=C(NCCc1cnc[nH]1)c1ccc2nc(-c3ccc(F)cc3)cn2c1 14 µM [inhibitor, partial curve, poor fit]
Cc1ccc(C2Cn3nnc(C(=O)N4CCC(C(=O)NCCc5ccccc5)CC4)c3CO2)cc1 (centres undefined) 11.1 µM [inhibitor, partial curve]
CCCOC(=O)CSc1ncnc2sc3c(c12)CCC(C)C3 (centres undefined) 11.1 µM [inhibitor, partial curve, poor fit]
COc1ccc(-c2cc(N3CCCC(NC(=O)c4ccsc4)C3)n[nH]2)cc1 (centres undefined) 6.24 µM [inhibitor, partial curve]
OCc1cccc(-c2cc3c(cn2)CN(Cc2ccccc2)CCN3)c1 18 µM [inhibitor, partial curve]
Cc1ccc(-c2nc(C)c(CCNC(=O)c3cccs3)s2)cc1 17.6 µM [inhibitor, partial curve, poor fit]
COc1ccc(Nc2cc3c(nc2OC)nc(CCc2ccccc2)n3C)cn1 20.2 µM [inhibitor, partial curve]
CC[n+]1c(/C=C/N(C)c2ccccc2)n(-c2ccccc2)c2ccc(-c3nc4ccccc4s3)cc21 17.6 µM [inhibitor, partial curve, poor fit]
O=C(O)c1ccc(-c2noc(-c3cccc(C(F)(F)F)c3)n2)cc1 8.81 µM [inhibitor, partial curve]
CN1CCOc2nc(-c3cccc(OC(F)(F)F)c3)ncc2C1=O 18 µM [inhibitor, partial curve]
Cc1ccc(-c2noc(-c3nc(C(C)C)no3)n2)cc1 11.1 µM [inhibitor, partial curve, poor fit]
Cc1ccc(-c2cc(N3CCC(CNC(=O)c4ccc5nc[nH]c5c4)CC3)n[nH]2)cc1 8.81 µM [inhibitor, partial curve]
CNC(=O)c1cccc(-c2cnc(NC(=O)c3cn(C)cn3)c3c2CCO3)c1 20.2 µM [inhibitor, single point]
Cc1ccc(-c2cc(C(=O)O)n(C)c2)cc1 9.89 µM [inhibitor, partial curve]
Cc1nn(-c2ccc(C(C)C)cc2)c(C)c1[C@@H]1C=C[C@@H](NC(=O)COCC(=O)O)C1 20.2 µM [inhibitor, partial curve, poor fit]
COc1ccc(NC(=O)Nc2nnc(C)s2)cc1 11.1 µM [inhibitor, partial curve, poor fit]
O=C(Cc1cccc(Cl)c1)N1CCn2c(nnc2-c2ccccc2)C1 15.7 µM [inhibitor, partial curve, poor fit]
O=C(NCc1ccc(F)cc1Cl)C1CCN(C(=O)c2ncn3c2COC(c2ccccc2)C3)CC1 (centres undefined) 8.81 µM [inhibitor, partial curve]
COc1cccc(-c2cccc(COc3cnc4c(ccn4CC(=O)O)c3)c2)c1 16.1 µM [inhibitor, partial curve]

Potency, active:
COc1ccc(NC(=O)c2cc3c(=O)[nH]c(C)cn3n2)cc1OC 9.89 µM
COc1ccc(NC(=O)N2CCc3c(C(=O)N(C)Cc4ccco4)cccc32)cc1 1.76 µM
C[C@@H]1C(=O)O[C@H]2[C@H]1CC[C@@]1(C)Cc3sc(NCCc4ccccn4)nc3[C@@H](C)[C@H]21 16.1 µM
c1ccc(COc2cccc(-c3nc4ccccc4s3)c2)cc1 4.95 µM
O=C(O)c1ccc(-c2noc(-c3ccc(C(F)(F)F)cc3)n2)cc1 0.313 µM
Fc1ccccc1Cc1cn2cc(-c3ccc(Cl)cc3)nc2s1 1.57 µM
